Reference: article PMC6919601, “Identification of Plasmodium dipeptidyl aminopeptidase allosteric inhibitors by high throughput screening” (PLoS ONE, 2019)
Among all 110,000 compounds or so, about 230 (0.21%) showed an effect of 50% or more. This is one part of the list.

biological target: DPAP1 (Plasmodium falciparum, UniProt Q8IIJ9); assay: primary screen, percent inhibition; read by cleavage of a fluorogenic dipeptide substrate; higher = more effect of the substance; parameters: species or system P. falciparum D10 trophozoite lysates; single well
Sequence (Q8IIJ9 whole entry, looked up): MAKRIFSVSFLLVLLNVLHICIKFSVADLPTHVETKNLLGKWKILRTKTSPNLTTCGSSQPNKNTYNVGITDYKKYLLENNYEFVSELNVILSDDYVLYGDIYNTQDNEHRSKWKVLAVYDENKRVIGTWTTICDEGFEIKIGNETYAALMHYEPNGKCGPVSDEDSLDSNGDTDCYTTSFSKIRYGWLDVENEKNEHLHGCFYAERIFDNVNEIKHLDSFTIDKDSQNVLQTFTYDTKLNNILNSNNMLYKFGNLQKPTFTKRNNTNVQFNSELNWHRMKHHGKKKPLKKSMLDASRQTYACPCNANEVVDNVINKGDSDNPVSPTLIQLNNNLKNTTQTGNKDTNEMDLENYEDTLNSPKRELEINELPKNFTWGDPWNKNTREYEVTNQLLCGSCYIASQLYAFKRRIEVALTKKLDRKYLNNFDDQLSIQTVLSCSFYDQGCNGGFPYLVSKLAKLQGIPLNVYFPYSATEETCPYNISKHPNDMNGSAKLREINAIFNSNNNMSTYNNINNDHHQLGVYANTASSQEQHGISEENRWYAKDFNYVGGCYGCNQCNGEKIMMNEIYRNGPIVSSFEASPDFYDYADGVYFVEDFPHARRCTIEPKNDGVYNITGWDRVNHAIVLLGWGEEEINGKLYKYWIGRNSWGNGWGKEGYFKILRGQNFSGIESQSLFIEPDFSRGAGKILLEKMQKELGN
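Note: 30 min substrate incubation versus DMSO and 10 µM JCP410 controls.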

SMILES | % Inhibition @ 10 uM [%]
CC(Cc1ccccc1)NC(=O)Cc1ccc(N)cc1 (centres unmarked) | 1.57
CC(=O)c1c(C)[nH]c(C(=O)NCc2ccccc2Cl)c1C | -4.14
CN(C)c1nc(Oc2ccc(=O)n(C)n2)nc(N(C)C)n1 | -2.65
Nc1ccc(Br)cc1-c1nc2ccccc2nc1O | -0.591
Nc1c(C(=O)c2ccc(Cl)cc2)sc2nc3c(c(-c4ccc(Cl)cc4)c12)CCCC3 | -4.21
COCCCNc1nc2c(-c3cccc(C(F)(F)F)c3)nnn2c2ccccc12 | -2.92
CC(=O)NCCc1c(C(=O)O)[nH]c2ccc(C(C)=O)cc12 | 4.65
CC1(C)CC(=O)C(C(NC(=O)c2ccccc2)(C(F)(F)F)C(F)(F)F)=C(O)C1 | 3.72
CCOc1ccc(/C=C/c2nc(C#N)c(NCc3ccc(F)cc3)o2)cc1 | 0.895
O=C(O)c1ccc(Oc2ccc3c(c2)C(=O)N(c2ccccc2O)C3=O)cc1 | 18.3
CCCN(CCC)CCNC(=O)NCc1noc2ccc(C)cc12 | -1.97
Cc1cc(O)nc(SCC(=O)Nc2cc(Cl)ccc2Oc2ccccc2)n1 | -1.08
CCC(Sc1nncn2c1cc1oc(C)cc12)C(=O)NCCc1ccccc1 (centres unmarked) | -3.46
CN(C)CCCNc1oc(-c2cccs2)nc1S(=O)(=O)c1ccccc1 | -9.11
CN1C(=O)c2[nH]nc(-c3ccccc3)c2C1c1cccnc1 (centres unmarked) | 2.29
CC(=O)NC(Cc1ccccc1)C(=O)NCc1ccccc1 (centres unmarked) | 5.99
CC1CCCc2sc(NC(=O)CCC(=O)O)c(C#N)c21 (centres unmarked) | -1.64
CN(Cc1cccc(Br)c1)CC(O)c1ccccc1 (centres unmarked) | -2.24
NC(=O)c1ccc(NC(=O)CCN2C(=O)c3ccccc3C2=O)cc1 | -1.44
CC(C)C[C@H](NC(=O)c1ccnc(N2CCN(C)CC2)c1)C(=O)NCC#N | 2.22
Cc1nc2nc(C)c(NS(=O)(=O)c3cccs3)c(O)n2n1 | -0.0709
COc1nc(NCCc2ccc(OC)c(OC)c2)nc(NC(C)(C)CO)n1 | -2.14
O=C1NC(=S)NC(=O)C1=Cc1cccc2ccccc12 | -1.25
COc1cc(C(=O)Nc2c3c(nn2-c2ccc(C)cc2C)CS(=O)(=O)C3)cc(OC)c1OC | 1.32
CC(CCc1ccccc1)NC(=O)Cn1ncc2c3ccccc3n(C)c2c1=O (centres unmarked) | -3.67
Cc1ccccc1C(=O)Nc1ccc2c(c1)OCO2 | 1.89

SMILES | % Inhibition @ 10 uM [%]
c1ccc(Oc2nc(-c3ccccc3)cc(-c3ccccc3)n2)cc1 | -3.82
CCCCOc1cccc(-c2[nH]c3c(C(=O)OC)cnn3c2NC2CCCC2)c1 | 2.79
O=C(NCCCc1ccccc1)c1oc(=O)c2ccccc2c1-c1ccccc1 | -6.67
O=C1CSC(c2ccc(Cl)c(Cl)c2)N1CCc1ccccc1 (centres unmarked) | -4.31
CCc1nnc(OCC(=O)NCCC2=CCCCC2)c2cc3cc(F)ccc3n12 | 1.63
CC1=CC(C)C2(CO)COCC1C2C (centres unmarked) | 3.15
Cc1nccn1CCCNC(=O)C(=O)Nc1cccnc1Cl | -0.189
CCNC(=O)C1CCCN(c2ncnc3c2nc2n3CCCCC2)C1 (centres unmarked) | 2.59
COc1ccc(CN2CCSCC2)c(OC)c1C | -1.98
COc1ccc(C2C(C#N)=C(N)N(c3ccc(F)cc3)C3=C2C(=O)CC(C)(C)C3)cc1 (centres unmarked) | 3.05
Cc1sc(NC(=O)Cn2nc(C(F)(F)F)cc2C)nc1-c1ccccc1 | 1.61
CCOc1ccc(NC(=O)C(C)(C)CC)cc1 | -8.67
O=C(c1cc(-c2ccccc2)[nH]n1)N1CCn2c1nc1ccccc12 | -2.77
O=C(COc1ccccc1Cl)Nc1ccc(N2CCN(C(=O)c3ccccc3)CC2)cc1 | 0.907
CCN1/C(=c2/s/c(=C3/C(=O)NN=C3C)n(CC)c2=O)Sc2ccccc21 | -1.44
Cc1ccc2cnn(CC(=O)NCc3ccc(OC(C)C)cc3)c2c1 | -4.71
Cc1nnc(NC(=O)CSc2ccc3nnc(-c4ccccc4)n3n2)s1 | -3.21
CCOc1cc(/C=C2/C(=N)N3N=C(C(C)C)SC3=NC2=O)ccc1O | -2.87
O=C(NCCc1ccccc1)c1ccc(-c2ccccc2)cc1 | 0.255
CN1CCN(C(=S)SCCN2CCCC2=O)CC1 | -8.13
Cc1ccccc1OCC(=O)NC(C)(C)C | 6.73
CC1CC(C)CN(C(=O)Nc2ccc(Cl)c(Cl)c2)C1 (centres unmarked) | 4.11
Cc1cc(OCC(=O)Nc2ccc(C#N)cc2)cc(C)c1Cl | 0.00477
CCOC(=O)C1=C(CNCCOC)NC(=O)NC1c1ccccc1 (centres unmarked) | -3.1
CCOC(=O)c1ccc(-n2c(C)cc(C=C(C#N)C#N)c2C)cc1 | 4.95
CCOC(=O)C1=C(CS(=O)(=O)c2ccc(C)c(C)c2)NC(=O)NC1c1ccc(O)c(OC)c1 (centres unmarked) | -3.94

SMILES | % Inhibition @ 10 uM [%]
COCCNC(=O)Cn1ncc2c1-c1ccccc1OC2 | 3.32
COc1cc(CN2CCN(Cc3ccc(Cl)cc3)CC2)cc(OC)c1 | -5.56
O=C(O)c1cc(-c2ccccc2)c(N2CCOCC2)s1 | -1.03
CCCCCOC(=O)C1=C(C)NC(=O)NC1c1cccc(OCc2ccccc2)c1 (centres unmarked) | 24.8
O=C(Nc1ccc(S(=O)(=O)Nc2ccc(Cl)c(Cl)c2)cc1)c1ccc(Br)o1 | 6.52
CCSc1cc(N2CCOCC2)nc(-c2ccccc2)n1 | -5.6
C=Cc1ccc(Cn2c(C(=O)O)c(CNCc3ccc(C)cc3)c3ccc(OC)cc32)cc1 | 9.28
N#CC1=C2SCN(CCN3CCOCC3)CN2C(=O)CC1c1ccc(F)cc1 (centres unmarked) | 49.5
COc1ccc2nc(O)c(-c3noc(-c4ccccc4C)n3)cc2c1 | -7.33
CCc1c(C)[nH]c(C(=O)OCc2ccccc2)c1C | 2.65
Cc1nn(Cc2ccc(F)cc2)c(C)c1NC(=O)c1cc(-c2ccc(F)cc2)on1 | -2.65
O=C(O)C1C2CCC(O2)C1C(=O)NCc1ccc(Cl)cc1 (centres unmarked) | -10.2
O=C(NCCCN1CCOCC1)c1ccccc1O | 6.73
COc1cc(C2C(C#N)=C(N)Oc3[nH]nc(-c4ccc5c(c4)OCO5)c32)cc(Cl)c1O (centres unmarked) | -4
CN(Cc1ccco1)S(=O)(=O)c1ccc(CN2C(=O)c3cccnc3C2=O)s1 | -1.48
O=C(C1COc2cc(S(=O)(=O)NCc3ccco3)ccc2O1)N1CCCCC1 (centres unmarked) | -3.04
O=C(NCc1cn2ccsc2n1)c1c(F)cccc1Cl | -2.45
Cc1ccc2c(CNCc3cccs3)c(C(=O)O)n(Cc3ccccc3F)c2c1 | 5.61
C=Cc1ccc(Cn2c(C(=O)O)c(CNCCc3cccs3)c3ccc(C)cc32)cc1 | 0.713
CC(CNC(=O)C1CCN(C(=O)c2cnn(-c3ccccc3)c2-n2cccc2)CC1)c1ccccc1 (centres unmarked) | 6.46
CC(Cc1ccc(F)cc1)N1CCN(C)CC1 (centres unmarked) | 3.48
CCOc1ccc(-c2nc(SCC(=O)Nc3nccs3)c(-c3ccc(F)cc3)[nH]2)cc1 | 1.85
Clc1ccc(CN2CCN(c3ccccc3)CC2)cc1 | 6.18
Cc1nnc2ccc(N3CCN(c4ccccn4)CC3)nn12 | 2.6
CC(C)CCNC(=O)CNC(=S)N1CC2CC(C1)c1cccc(=O)n1C2 (centres unmarked) | -2.26
C[C@H](C[C@H](NC(=O)c1ccc(-c2ccccc2Cl)cc1)C(=O)NCC#N)c1ccccc1 | 2.87

SMILES | % Inhibition @ 10 uM [%]
Cc1[nH]nc2c1C1(CCN(C(=O)c3ccccc3)CC1)C(C#N)=C(N)O2 | -1.38
COC(=O)c1cc2occc2n1Cc1nc(-c2cccc(C)c2)oc1C | -7.15
Cc1ccc2ncc(NC(=O)NC3CCCCCC3)c(O)c2c1 | 43
CC(NC(=O)c1ccccc1F)c1ccc2c(c1)OCCCO2 (centres unmarked) | 0.475
Cc1ccc(-c2scc(C)c2C#N)cc1 | -1.06
Clc1ccc(OCCSc2nnnn2C2CCCCC2)cc1 | -1.26
CCC(C)/N=c1/c(-c2cc(C)c(C)cc2C)c(O)c1=O (centres unmarked) | 0.882
CCOC(=O)N1CCN(CC2CC3C=CC2C3)CC1 (centres unmarked) | 0.472
COc1ccc(/C=C2\N=C(c3cncc(Br)c3)OC2=O)c(OC)c1OC | -2.41
COc1cc(C2C(C(=O)c3ccc4c(c3)CC(C)O4)=C(O)C(=O)N2Cc2ccco2)ccc1O (centres unmarked) | 2.53
COc1cc(CN2CCOCC2)cc(OC)c1 | -0.0494
CCSC1=NSC2=NC(=O)/C(=C\c3ccc(C)o3)C(=N)N12 | -2.12
COc1cc(OC)c(OC)cc1CN1CCN(C(=O)c2ccccc2F)CC1 | -15.2
COC(=O)c1ccc(Oc2cc(C)nc(NCc3ccccc3)n2)cc1 | -6.87
C=CCOC(=O)C1=C(C)OC(N)=C(C#N)C1c1cccc2ccccc12 (centres unmarked) | 2.8
CCOc1ccc(CNC(=O)C(C)n2nc(C)c3c(C)n(-c4ccccc4)nc3c2=O)cc1 (centres unmarked) | -0.665
O=C(/C=C(/c1ccc(Cl)cc1)n1cncn1)c1ccccc1 | -3.69
O=C(CN1CC(c2ccccc2)CC1=O)NCCC1=CCCCC1 (centres unmarked) | -3.41
CCn1ncc(Br)c1C(=O)Nc1cccc(C(=O)O)c1 | 0.512
CCCn1c(=O)c2c(nc3n2CCN3Cc2ccco2)n(C)c1=O | -1.98
COc1ccccc1-c1c(C)nn2c(SCC(=O)N3CCOCC3)cc(C)nc12 | -3.47
CS(=O)(=O)c1ccc2nc(NC(=O)Nc3ccc(Cl)c(Cl)c3)sc2c1 | 2.38
CCC(=O)/N=c1/n(C)c2ccccc2n1CCOc1ccccc1 | 0.512
